The values below come from the RNAGym collection of RNA variant scans (doi:10.7554/elife.90254).

To fix the notation:
B1: LINE1-full (parent)
chain: UACGUAGGUGGUUUUCCCCUGAUAGUGCUAAGGGGGCCUGGAAGUUUGGACUGGGCAGAGCUCAACACAGCGUGGCAAAGUGGCUGUGGCUAGACUGCCUCUCUGGAUUCCUCGUCACUCAGCAGGGCAUCUCUGAGAGAAAUGCC

Read counts are not given, so values of variants with three or more changes are uncertain.

In the data set the parent is B1. As to the kind of experiment: self-cleavage, relative activity (ratio to wild type); higher = more cleavage; in vitro, sequencing; the parent is a self-cleaving ribozyme.
For U39A U52G U91A, the self-cleavage was 1.02.

On to G8U U12C U29A, for which the self-cleavage is 1.43.

For the variant U45G A67G A129G, the self-cleavage worked out at 0.5.

For U12C U102A A142G, the self-cleavage was 1.42.

On to U20A U39A A42G A92G, for which the self-cleavage was 0.09.

With U12C U81C U104A, the self-cleavage is 1.48.

In the case of U9C A43G U112C U115A, the self-cleavage turned out to be 0.71.

For the variant G32C A43G G114U A124G U130A G137C, the self-cleavage worked out at 2.3.

For the variant U13C G36C A141G, the self-cleavage is 1.33.

For the variant U9A U39C A59G A107G, the self-cleavage turned out to be 0.

For C19U U47C A94U U96A U115C, the self-cleavage came to 0.63.

Regarding U39A A57U U100C U112C A129G U132C, the self-cleavage was found to be 0.48.

Take U5C U26C U100C: the self-cleavage is 1.02.

Regarding U14C G33A A42G U81A U112A U119C, the self-cleavage was found to be 1.37.

With U52A A107G A141G, the self-cleavage is 1.44.

Regarding A24G A92G A140G U143C, the self-cleavage amounted to 0.

On to G40A U46A C61U, for which the self-cleavage amounted to 0.03.

Take G11A G49A U112C: the self-cleavage is 0.71.

For the variant U1C C38U U47C A136G A140G, the self-cleavage was determined as 0.84.

Consider G72A A78U U96C U112A, for which the self-cleavage came out at 0.13.

U14C U20A A94G A141G: the self-cleavage stood at 0.39.

In the case of U14C U45C C51U U73C U132C, the self-cleavage was 0.71.

For G54A U62C A141U, the self-cleavage is 0.01.

On to A57G G70A A121G A140G, for which the self-cleavage is 0.11.

For U14C G74A U112C, the self-cleavage was determined as 0.76.

For the variant U9A U14C C84G A141G, the self-cleavage is 0.17.

As for A64G A94G A138G, the self-cleavage was found to be 0.

On to U26A U47G U100C A142G, for which the self-cleavage came to 1.23.

Consider A65G A69G U134C, for which the self-cleavage worked out at 0.26.

As to A30G A57U C61U U115A A140G, the self-cleavage was found to be 0.08.

With U13C C51U A129G, the self-cleavage came out at 1.19.

In the case of A2U U20C G27A A50G A78G U109C, the self-cleavage is 0.

As for U23C G33U U104A A117U, the self-cleavage was 1.11.

As for U62C U73A U87C, the self-cleavage worked out at 0.

Turning to U20C G35A A124G, the self-cleavage was determined as 0.7.

A42G A65G A77G A136G: the self-cleavage is 0.

On to A24G U26C A79G A141G, for which the self-cleavage amounted to 0.84.

With U13C A43G A65G A69U U104C A141G, the self-cleavage is 0.

U62G A121U A129G: the self-cleavage was determined as 0.08.

As to G4C U13C U39C U87A, the self-cleavage is 0.31.

For G8A A57U A77G, the self-cleavage was 0.15.

As for U15A U26C U115C, the self-cleavage is 1.93.

Consider U5A A42G A138G U143C, for which the self-cleavage amounted to 0.32.

Turning to G33A U87C A94U, the self-cleavage came out at 0.12.

With U62A U109C C113A A129G A140G, the self-cleavage is 0.01.

As for U9C U115C G122A, the self-cleavage came to 2.03.

For U14C U134C A142G, the self-cleavage came out at 0.53.

For the variant U13C C28U U85A U134C, the self-cleavage was 0.03.

For the variant U46C A50G A117U, the self-cleavage was 1.26.

Turning to G36A U39C A43U A138U, the self-cleavage came to 1.53.

Consider A31C U85A A138G, for which the self-cleavage stood at 0.52.

Take U14A U20A A78G C103A: the self-cleavage was 0.6.

Take U14C U91G A92G: the self-cleavage turned out to be 0.09.

In the case of G40A U102C A124G, the self-cleavage was determined as 1.49.

Regarding A2G U14C U20C U46C U52A U73A U85C, the self-cleavage was 0.34.

As to U62C U91C A107G, the self-cleavage was determined as 0.

Consider G10U A64U A67G, for which the self-cleavage turned out to be 0.11.

With G53C U115A U143C, the self-cleavage was 1.76.

Regarding U46C A50G A67U G88A, the self-cleavage was 0.08.

For the variant A64G U104A U108C, the self-cleavage came to 0.32.

On to U109C A129U U143C, for which the self-cleavage was 2.51.

Regarding U87A A124C U134C, the self-cleavage was determined as 0.07.

Take U9C U119C A136G: the self-cleavage was found to be 1.72.

For A2U A65U U119C G139A C145G, the self-cleavage worked out at 0.42.

Consider U13C C38U U104A A136G, for which the self-cleavage worked out at 1.14.

Regarding U14C U45C G80U U96G, the self-cleavage was determined as 0.04.

A69G U91C A140U: the self-cleavage came to 0.

Turning to A50U U108G U115C, the self-cleavage worked out at 1.62.

For A69G U115C A142G, the self-cleavage is 1.02.

U47G G60C A67U: the self-cleavage came out at 0.04.

Consider A24U G54U U112A, for which the self-cleavage came to 1.12.

In the case of A57G U85A U96G A121U A124G, the self-cleavage came out at 0.19.

Turning to U20C A43U U52A A77G, the self-cleavage came to 2.32.

On to U20A A69G U73C, for which the self-cleavage came to 1.53.

Turning to U1A G60A U119C, the self-cleavage was found to be 0.14.

For the variant A31U A117C G144U, the self-cleavage amounted to 1.14.

Turning to U1C A65G U130C, the self-cleavage is 0.

Regarding A31U U85C G114C C120A, the self-cleavage was found to be 0.13.

U81C U85A U112C A121G: the self-cleavage is 0.

Take G25C U62A U119A: the self-cleavage stood at 0.02.

Take U12C A57G U132C: the self-cleavage worked out at 1.34.

For the variant C63U U73C U115C, the self-cleavage was 0.71.

Turning to U9C A24U U29C A136G A142U, the self-cleavage is 0.32.

As for A57G U119C A129G, the self-cleavage was 2.7.

For the variant U26C A30U U81A, the self-cleavage worked out at 2.14.

As to U12C A22G U87A U91C A117U A124U, the self-cleavage worked out at 0.43.

For U20A U26A U143C, the self-cleavage turned out to be 1.45.

Take U15C A64C A65G A94G C120U: the self-cleavage was determined as 0.

Regarding G4A U119A A121G, the self-cleavage was found to be 1.61.

Turning to C38U A94G A136U, the self-cleavage came to 0.23.

Consider G7C A78G A79U U96C U119C, for which the self-cleavage is 0.84.

On to G35A U85C A117C A129U, for which the self-cleavage was determined as 0.15.

On to U9C G21A U39C U47C G88A U119A, for which the self-cleavage was 0.07.

Regarding U13A U134A A140U, the self-cleavage stood at 1.44.

As to A22G A43U U73C G89A U112C, the self-cleavage was 0.

On to A6G G49U U112C A138G, for which the self-cleavage was 1.45.

As for G74A U109C U115C A129G, the self-cleavage stood at 1.3.

In the case of U1C U47A U52A, the self-cleavage is 1.25.

In the case of U9C U26C U39C C90U, the self-cleavage is 0.06.

With A67G U112C A124U U132C, the self-cleavage stood at 0.68.

As for U13C G58A U87G, the self-cleavage was determined as 0.25.

Take G21A A59G U102C U104G: the self-cleavage was 0.

Take G41U A138G A140U: the self-cleavage is 0.48.

Turning to U23A U62A U109A, the self-cleavage was determined as 0.12.

Turning to U13C G41U A94U, the self-cleavage is 0.15.

U14C U47C A138G: the self-cleavage came out at 1.96.

On to C38G U39C A129U, for which the self-cleavage was 1.59.

As for U9A A50U A64G, the self-cleavage came out at 0.22.

Consider U9C U109A A138G, for which the self-cleavage is 2.17.

Turning to U26A A30G C113U A141G, the self-cleavage was 1.27.

As for U14A U29C A43G, the self-cleavage came to 1.71.

U13A U73C A79G A138G: the self-cleavage amounted to 1.53.

Take A92U U108C U112C A117G A141G: the self-cleavage is 1.84.

In the case of U9C A140G U143C, the self-cleavage turned out to be 1.02.

For the variant A79G U96C A124G G125U, the self-cleavage was 0.

As to U47C U85A U132A, the self-cleavage was 0.14.

Consider A78G U87C C111A, for which the self-cleavage stood at 0.08.

On to U5C U52A A57U A77U, for which the self-cleavage was 0.21.

On to U87A A94G U119A, for which the self-cleavage was 0.05.

In the case of C3U A22G U108C, the self-cleavage worked out at 0.

As for A43G U130C A142G, the self-cleavage turned out to be 2.14.

For the variant U14C G41U U134C, the self-cleavage amounted to 0.09.

For the variant A50U A64G U81C, the self-cleavage worked out at 0.22.

Consider U26C C68U U100C, for which the self-cleavage worked out at 0.56.

Take U9A A30C A42G: the self-cleavage stood at 1.62.

On to A65C U85A C128U, for which the self-cleavage stood at 0.09.

As for A22G A43G U47G U62A A142G, the self-cleavage worked out at 0.19.

Consider A22G U47C A136G U143C, for which the self-cleavage was found to be 1.58.

Take U26A U52G U104A U108C: the self-cleavage was found to be 1.47.

For G93A A94G U104C, the self-cleavage stood at 0.14.

Take U12C A64G A69U A124G: the self-cleavage was determined as 0.16.

For the variant U9A C116U A141G, the self-cleavage stood at 1.93.

On to C63U A69G U115C G127A, for which the self-cleavage amounted to 0.06.

For U14C A43U C113A, the self-cleavage amounted to 1.01.

Regarding C3U A24U G72A, the self-cleavage was 0.58.

In the case of U81A A107U A117C, the self-cleavage was 1.67.

With G54A U96C U115C, the self-cleavage came to 0.06.

Consider A30U U85A A142G, for which the self-cleavage was determined as 0.04.

Consider G40U A78G A117G, for which the self-cleavage is 1.63.

Turning to A57G A69C U132C A138U, the self-cleavage was 0.

With A30G A43G A129G, the self-cleavage came out at 1.23.

Turning to U5C A22G A129U, the self-cleavage came to 1.53.

Regarding U14C A65G U143A, the self-cleavage was 0.

Take U39A U52A A117U: the self-cleavage was found to be 1.5.

As for U13C U20A A50G U143C, the self-cleavage worked out at 0.9.

Take U1A U14C U39C: the self-cleavage is 1.06.

A79G A121G A142G: the self-cleavage is 2.3.

As to U13C U39C A92U C128U, the self-cleavage was 0.48.

On to U13C U45C A117G A142G, for which the self-cleavage is 1.53.

A50G A59G A107G: the self-cleavage stood at 0.

Turning to U9A G54A U91C A136G, the self-cleavage is 0.1.

As for G21A U23A U62C U134C, the self-cleavage was 0.04.

Turning to U81C U112C A124U, the self-cleavage came to 1.31.

In the case of U73C A136G A138G, the self-cleavage stood at 2.04.

Consider A2G C37U U73A A79G, for which the self-cleavage was 2.83.

In the case of U29C A69G A140G, the self-cleavage came to 0.25.

Turning to A65G A67U A138G, the self-cleavage is 0.06.

On to U13C C71U U87C, for which the self-cleavage was determined as 0.05.

Take A22G G25A U143A: the self-cleavage stood at 0.48.

With A43G A79G U81A, the self-cleavage stood at 1.38.

For the variant U20G U62C C101A C146U, the self-cleavage amounted to 0.18.

On to U23C U46C U81C G126A, for which the self-cleavage came out at 1.53.

Consider C38U A79G A92G U130C, for which the self-cleavage was determined as 0.

In the case of C116U U132C A136U, the self-cleavage was 1.19.

Turning to U14C U20C A50G, the self-cleavage came out at 1.84.

Take U20A A94G U96C: the self-cleavage turned out to be 0.19.

C51U U52C A78U U81C U96A U132C: the self-cleavage came out at 0.04.
